± gives the standard deviation of the averaged measurements. Some of the results follow.

Consider 56 sequences from the supplement of paper PMC11417369.

The assay concerns PfAP2-I AP2 domain 3 (GST-tagged). Nature of the assay: gcPBM binding intensity (ln(normalized median fluorescence intensity)); higher = stronger DNA binding. The method in brief: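 Each value is the highest Masliner-normalised natural-log median intensity across replicate spots of either orientation of a probe. The probes were primer-extended double-stranded 36-bp intergenic genomic sequences on an Agilent 4 × 180k array, alongside negative controls, exposed for 1 h to GST-tagged P. falciparum DNA-binding domains expressed in E. coli. Bound protein was picked up with Alexa488 anti-GST antibody and scanned at 488 nm.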
Consider “TATAAAAAAAACGAAAAAAAAAAAAAAAATACAGGA [TGCATGCA_negctrl_site585]”, for which the “gcPBM binding intensity (ln)” value was 7.85 ± 0.69.

As to “TTATTTATAAACATATGTACTAATACATGATTAACA [XGTACX_site7645]”, the “gcPBM binding intensity (ln)” value turned out to be 7.62 ± 0.35.

As to “GACATATATATAAAATGTACATATATATTTACATAT [XGTACX_site7822]”, the “gcPBM binding intensity (ln)” value was 7.75 ± 0.33.

Regarding “TGATAATAAGCATACACACACACACTAGAAAAAAAA [CACACA_site4558]”, the “gcPBM binding intensity (ln)” value came out at 8.12 ± 0.63.

With “TGTTCTTTATTTTATTGTACTTTTAAAATTCCTTTA [XGTACX_site8058]”, the “gcPBM binding intensity (ln)” value came out at 8.14 ± 0.46.

For the sequence “AATTAAAAAAAATACACACACACATACCCATATATA [CACACA_site5767]”, the “gcPBM binding intensity (ln)” value is 8.02 ± 0.18.

“AATGATATATTATAAACACACAAAGATGAATATATA [CACACA_site2818]”: the “gcPBM binding intensity (ln)” value was 7.66 ± 0.56.

For “TACCCTCGTATATATATACACACTAAAATACAGACA [CACACA_site4154]”, the “gcPBM binding intensity (ln)” value came to 7.92 ± 0.61.

Consider “ATTCATTCATATGTTACACACACACCCACCCATAAA [CACACA_site9066]”, for which the “gcPBM binding intensity (ln)” value was 8.75 ± 0.62.

Regarding “AATTTATGTTTTAAAAGTACTTTTCTAATTTATAAA [XGTACX_site1593]”, the “gcPBM binding intensity (ln)” value was determined as 7.66 ± 0.52.

Turning to “CTAAAGTAAATTTAAGCACACACAACGAATTTTTAT [CACACA_site8599]”, the “gcPBM binding intensity (ln)” value came to 8.32 ± 0.57.

For the sequence “TATGTACAGACATATACACACCTCTATAATCTATAT [CACACA_site6482]”, the “gcPBM binding intensity (ln)” value is 7.92 ± 0.5.

As to “TGTTTATACAATATTTGTACATATATTTTTATTTTT [XGTACX_site4104]”, the “gcPBM binding intensity (ln)” value came to 7.8 ± 0.55.

“TTTTAAATAAAAAAATTAAATTAAAATATATAAAAA [XGTACX_negctrl_site490]”: the “gcPBM binding intensity (ln)” value is 7.34 ± 0.64.

For “CATTTTTACAACGTTGCACACTTCAAAAGGTTTACA [CACACA_site2760]”, the “gcPBM binding intensity (ln)” value was 8.54 ± 0.5.

Consider “GATACTCTCTTTTAATGTACAAAATTTTAAAAATTA [XGTACX_site1781]”, for which the “gcPBM binding intensity (ln)” value came to 8.03 ± 0.52.

As for “TATAAAAAAAAAAAAAGTACTTAAATATAAATAAAT [XGTACX_site5052]”, the “gcPBM binding intensity (ln)” value was 7.64 ± 0.31.

“GTTCCATGAGTATATACATGCATATATCTAGTTTAT [TGCATGCA_site388]”: the “gcPBM binding intensity (ln)” value amounted to 8.04 ± 0.86.

Regarding “ACATTTTTTTTGTGAGTCTTTGCGGCATCAAAATTT [XGTACX_negctrl_site348]”, the “gcPBM binding intensity (ln)” value amounted to 7.965 ± 0.049.

Regarding “AAAAAAGAAAAAAACTGTACATGATAAATATTTATT [XGTACX_site7270]”, the “gcPBM binding intensity (ln)” value was determined as 7.63 ± 0.73.

Regarding “TTATGAAGCAGACATGCATGTTATGGCTTAAATAAT [TGCATGCA_site492]”, the “gcPBM binding intensity (ln)” value was 7.74 ± 0.86.

With “TCCCTTTGTATATATATATAAATATATATATATATA [CACACA_negctrl_site157]”, the “gcPBM binding intensity (ln)” value turned out to be 8.91 ± 0.57.

Turning to “AGATTATATAAAAAAGTGCATATTTTCATTTTTTTT [GTGCAC_site9448]”, the “gcPBM binding intensity (ln)” value was determined as 9.07 ± 0.13.

“TTTATCGAATATAATAGTACATAAAAAAAAAAAAAA [XGTACX_site1734]”: the “gcPBM binding intensity (ln)” value came out at 8.02 ± 0.6.

For “CATTAAAATGGTAAATGTACATATCCATCTTCTCAC [XGTACX_site4636]”, the “gcPBM binding intensity (ln)” value turned out to be 7.72 ± 0.44.

On to “AGTATAAAAATAAGCACACACACAAATATATATTTA [CACACA_site923]”, for which the “gcPBM binding intensity (ln)” value was 8.21 ± 0.37.

As to “ATAATATAAATATTAACACACATCCTTTTATGTATA [CACACA_site6685]”, the “gcPBM binding intensity (ln)” value is 7.67 ± 0.63.

With “TTTCTTCTGCATTATGCACACTATAATTCGTTAAAA [CACACA_site5568]”, the “gcPBM binding intensity (ln)” value was determined as 10.7 ± 0.36.

For the sequence “TTTTCTTTTACAAAGGGTACATAATTTAAATTCATA [XGTACX_site3876]”, the “gcPBM binding intensity (ln)” value came out at 7.74 ± 0.4.

Take “TATATGCACTTAATATGTACACAAAAAAAAAAAAAA [XGTACX_site6199]”: the “gcPBM binding intensity (ln)” value stood at 9.87 ± 0.8.

For “CTTATATTAAAAACTTGTACACATGTTAAGAATTTT [XGTACX_site5857]”, the “gcPBM binding intensity (ln)” value was 7.57 ± 0.33.

For the sequence “TTTATATATTATACATGTACATATTTATTTATATAA [XGTACX_site3474]”, the “gcPBM binding intensity (ln)” value was determined as 7.86 ± 0.46.

For “AAATAAGCATATACAAACATGCATACATATAAATAA [CACACA_negctrl_site246]”, the “gcPBM binding intensity (ln)” value was 7.64 ± 0.59.

For the sequence “AAAAAAAAAAAATCATGTACTTATTTTTCATTGTTG [XGTACX_site1542]”, the “gcPBM binding intensity (ln)” value was determined as 7.53 ± 0.17.

As to “ATACATATATATATTCTACACACTTATAATATAATA [CACACA_site8782]”, the “gcPBM binding intensity (ln)” value was 8.06 ± 0.49.

Turning to “GTAAAAGTTAAAAAAACATGCAAAATTTAAAAAAAA [TGCATGCA_site637]”, the “gcPBM binding intensity (ln)” value stood at 7.91 ± 0.94.

With “ACTATATTTGCCCTTTTAATCAGAACAAAAAAAAAA [CACACA_negctrl_site1051]”, the “gcPBM binding intensity (ln)” value turned out to be 8.74 ± 0.13.

With “ATTATATTCCAAGTTTGTACATATATATAAAAGTAT [XGTACX_site1631]”, the “gcPBM binding intensity (ln)” value came out at 7.98 ± 0.48.

“TTCTTTTCAGAAGGAAAGAATTATAACATATCATAA [XGTACX_negctrl_site548]”: the “gcPBM binding intensity (ln)” value came to 7.47 ± 0.3.

As for “ATATTATGTGAAGAACGTACAAATTTTTACACTATA [XGTACX_site1485]”, the “gcPBM binding intensity (ln)” value was 7.86 ± 0.63.

With “TATTTTGCTCATCCATGTACACATAGATATATTTTA [XGTACX_site8244]”, the “gcPBM binding intensity (ln)” value was found to be 8.09 ± 0.51.

With “CTATAAATAACAGAAAGTACATATACATGGATATAT [XGTACX_site3317]”, the “gcPBM binding intensity (ln)” value was found to be 7.75 ± 0.72.

Consider “TAAAAGAAATAAGGTGCACACATATACATATATATA [CACACA_site8037]”, for which the “gcPBM binding intensity (ln)” value was 10.19 ± 0.071.

Turning to “TTTCTAAATGTTTATATATATATATATATATAAATA [GTGCAC_negctrl_site397]”, the “gcPBM binding intensity (ln)” value was found to be 7.98 ± 0.35.

In the case of “AATATATCAAAAATTGGATAGTTTCTTATAAAAAAT [CACACA_negctrl_site39]”, the “gcPBM binding intensity (ln)” value was found to be 7.45 ± 0.58.

With “ATATATTTTAAAGAAAGTACCCACCGTTTGAAGTCA [XGTACX_site2273]”, the “gcPBM binding intensity (ln)” value stood at 8.3 ± 0.38.

On to “ATTAATATATAACGTGCACACACACCGTTACGTATG [CACACA_site8543]”, for which the “gcPBM binding intensity (ln)” value was determined as 10.3 ± 0.35.

“TGTTATATATATTGACTTAATAAATAAATAAATATA [GTGCAC_negctrl_site590]”: the “gcPBM binding intensity (ln)” value stood at 7.25 ± 0.26.

“TCTTATTTTATAAATATAAATATATATATATATATA [GTGCAC_negctrl_site479]”: the “gcPBM binding intensity (ln)” value was 9.25 ± 0.37.

For “TATTTTATAATTTACCGTACATTAATTGTATTATTA [XGTACX_site5722]”, the “gcPBM binding intensity (ln)” value is 8.03 ± 0.49.

As to ATATATTTTATATGTGTGCACTATATATATATATAT, the “gcPBM binding intensity (ln)” value turned out to be 11.4 ± 0.3.

As for “TTACAAAACACTTATACACACATATAAATATAAATA [CACACA_site7307]”, the “gcPBM binding intensity (ln)” value worked out at 7.95 ± 0.17.

For “CTCCTCATATAATTTTGTACATAAAAAATTACCATT [XGTACX_site3879]”, the “gcPBM binding intensity (ln)” value is 7.93 ± 0.54.

For the sequence “TATAAACATAAATATACACACAAACATATAGGTATT [CACACA_site6690]”, the “gcPBM binding intensity (ln)” value turned out to be 7.71 ± 0.59.

With “AAAAAAAAAAAAAAAAAAAAAAATATATATATATTT [GTGCAC_negctrl_site502]”, the “gcPBM binding intensity (ln)” value stood at 9.625 ± 0.064.

As to “ATTAATCAATATAGGCGTACAAAAAAAATAAATTAT [XGTACX_site1513]”, the “gcPBM binding intensity (ln)” value turned out to be 8.16 ± 0.54.
